From PubChem BioAssay AID504332 (National Center for Advancing Translational Sciences (NCATS), 2011)
In all, about 350,000 compounds went through this assay and about 31,000 (8.9%) were called active. This list was built around the results that the source calls inconclusive (neither active nor inactive); the mix of calls is not that of the screen. The call rests on the fitted dose curve; in most records, active means well fitted inhibition curve with a large enough effect; inconclusive means small, poorly fitted or top-dose-only effect; inactive means no such curve, though single readings can be large or run the other way. Potencies beside an inconclusive call are fits to weak or partial responses and may not hold up.

Molecular target: Histone-lysine N-methyltransferase EHMT2 (Homo sapiens) (UniProt Q96KQ7)
UniProt Q96KQ7, sequence (Q96KQ7 whole entry, looked up): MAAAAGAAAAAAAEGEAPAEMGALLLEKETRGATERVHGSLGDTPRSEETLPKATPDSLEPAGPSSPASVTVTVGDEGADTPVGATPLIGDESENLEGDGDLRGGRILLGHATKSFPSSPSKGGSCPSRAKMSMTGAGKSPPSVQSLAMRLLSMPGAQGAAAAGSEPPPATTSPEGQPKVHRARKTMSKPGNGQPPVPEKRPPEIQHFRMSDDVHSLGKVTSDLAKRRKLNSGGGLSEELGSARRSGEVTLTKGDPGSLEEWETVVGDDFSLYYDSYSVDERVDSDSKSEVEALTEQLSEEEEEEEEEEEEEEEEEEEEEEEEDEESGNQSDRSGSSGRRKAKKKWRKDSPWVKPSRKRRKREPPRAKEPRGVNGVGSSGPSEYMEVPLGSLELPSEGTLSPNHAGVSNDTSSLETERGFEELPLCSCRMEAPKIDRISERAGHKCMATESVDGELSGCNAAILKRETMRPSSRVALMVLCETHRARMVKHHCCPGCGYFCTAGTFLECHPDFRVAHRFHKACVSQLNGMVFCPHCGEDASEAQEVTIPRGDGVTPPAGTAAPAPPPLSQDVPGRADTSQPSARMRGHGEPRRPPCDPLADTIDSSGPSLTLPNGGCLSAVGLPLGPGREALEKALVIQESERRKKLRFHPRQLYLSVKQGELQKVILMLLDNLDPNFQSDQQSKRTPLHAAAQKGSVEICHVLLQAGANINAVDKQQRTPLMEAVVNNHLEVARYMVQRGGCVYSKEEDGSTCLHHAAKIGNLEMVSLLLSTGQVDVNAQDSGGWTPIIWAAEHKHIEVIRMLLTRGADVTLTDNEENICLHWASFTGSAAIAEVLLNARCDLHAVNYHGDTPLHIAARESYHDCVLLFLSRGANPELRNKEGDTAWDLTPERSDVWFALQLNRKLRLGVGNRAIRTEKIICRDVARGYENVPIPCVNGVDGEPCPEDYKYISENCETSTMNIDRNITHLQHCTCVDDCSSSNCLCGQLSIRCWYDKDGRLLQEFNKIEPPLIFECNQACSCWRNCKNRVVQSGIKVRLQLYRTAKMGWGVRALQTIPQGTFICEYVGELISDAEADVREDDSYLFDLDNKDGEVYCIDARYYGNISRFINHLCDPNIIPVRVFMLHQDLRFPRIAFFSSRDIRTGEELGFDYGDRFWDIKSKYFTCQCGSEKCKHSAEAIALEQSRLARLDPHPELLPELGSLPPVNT
Assay: qHTS Assay for Inhibitors of Histone Lysine Methyltransferase G9a; further: nearly all actives have a fitted effect of over 75% in size
Conditions: G9a H3K9 monomethylation, AlphaScreen, 2 h; activity, negative = inhibition: at 59 µM (top of the series) unless noted
How it was run: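 Chemiluminescent proximity detection of H3K9 monomethylation, read after 10 min bead incubation in the dark. Reaction: 20 nM G9a, 500 nM biotin-H3K9 peptide, 20 uM SAM cofactor, 2 h, room temperature, following 15 min enzyme-compound preincubation.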
On the % scale 0 is the no-effect control and ±100 the full control effect; potency means the concentration at half of the fitted maximal effect; tags describe the fitted curve by direction and shape.

| SMILES | Potency | activity, negative = inhibition |
| --- | --- | --- |
| Cc1cc(C)cc(NC(=O)N2CCC(NC(=O)c3ccc(F)cc3)CC2)c1 | inconclusive: 89.1 µM [inhibitor, single point] |  |
| Cc1ccc2nc(N(CCCN(C)C)C(=O)c3ccc(Br)s3)sc2c1 | inconclusive: 56.2 µM [inhibitor, partial curve, poor fit] |  |
| C=CCNC(=O)C1CC(=O)N(c2ccc(OCC(=O)Nc3ccc(C)cc3)cc2)C1 (stereo not drawn) | inconclusive: 70.8 µM [inhibitor, single point] |  |
| Cc1ccc(Nc2nc(N)c([N+](=O)[O-])c(N3CCC(C)CC3)n2)cc1C | inconclusive: 79.4 µM [inhibitor, partial curve, poor fit] |  |
| O=C(NCC1CCCO1)c1ccc(S(=O)(=O)N2CCC(c3nc4ccc(Cl)cc4[nH]3)CC2)cc1 (stereo not drawn) | inconclusive: 35.5 µM [inhibitor, single point] |  |
| O=[N+]([O-])c1ccc(-c2n(-c3ccccn3)c3ccccc3[n+]2-c2ccccn2)cc1 | active: 50.1 µM |  |
| O=c1[nH]c(N/N=C/c2ccc(O)cc2)nc2ccccc12 | inconclusive: 39.8 µM [inhibitor, single point] |  |
| COc1ccc(/C=C(\NC(=O)c2ccc(C)cc2)C(=O)N2CCCCC2)cc1 |  | inactive: -1.46% [at 102 µM] |
| O=C(CSc1nnc(-c2ccncc2)o1)N1CCCC1 |  | inactive: -5.55% [at 102 µM] |
| CC(C)c1ccc(NC(=O)c2cccn2-c2nnc(N3CCCCC3)s2)cc1 |  | inactive: -40.9% |
| CCN(CC)c1ccc(NC(=O)c2cncc(Br)c2)cc1 | inconclusive: 2.82 µM [inhibitor, partial curve, poor fit] |  |
| O=C(COC(=O)CSc1cc(Cl)ccc1Cl)NCc1ccc2c(c1)OCO2 |  | inactive: 17% |
| CCc1ccc(C(=O)NNC(=O)c2cccc(S(=O)(=O)N3CCN(C)CC3)c2)cc1 | active: 56.2 µM |  |
| CCN(CC)CC(=O)N1c2ccccc2CCc2ccc(NC(=O)c3cc(OC)c(OC)c(OC)c3)cc21 | inconclusive: 39.8 µM [inhibitor, partial curve, poor fit] |  |
| Cc1ccc(OCCn2nnc3sc4c(c3c2=O)CCC(C(C)(C)C)C4)cc1 (stereo not drawn) |  | inactive: 7.6% |
| CCSc1nnc(NC(=O)C2CCCCC2C(=O)OCC(F)(F)C(F)F)s1 (stereo not drawn) | inconclusive: 63.1 µM [inhibitor, partial curve, poor fit] |  |
| COc1ccc(-c2cc(C(C)=O)c(C)n2CCC(=O)NCc2ccc(F)cc2)cc1 | inconclusive: 25.1 µM [inhibitor, partial curve, poor fit] |  |
| Cc1cc(C)c(C(=O)Cn2cnc3cc([N+](=O)[O-])ccc3c2=O)cc1C | inconclusive: 14.1 µM [inhibitor, partial curve, poor fit] |  |
